# According to the supplement of paper PMC3334620:
# Over roughly 33,000 sequences, “E-score (-0.5 to 0.5)” has its median near -0.012; the highest 2% begin near 0.29. This is one part of the list.
# Biological target: T1, Ybr033w (UniProt P38073)
# T1 sequence: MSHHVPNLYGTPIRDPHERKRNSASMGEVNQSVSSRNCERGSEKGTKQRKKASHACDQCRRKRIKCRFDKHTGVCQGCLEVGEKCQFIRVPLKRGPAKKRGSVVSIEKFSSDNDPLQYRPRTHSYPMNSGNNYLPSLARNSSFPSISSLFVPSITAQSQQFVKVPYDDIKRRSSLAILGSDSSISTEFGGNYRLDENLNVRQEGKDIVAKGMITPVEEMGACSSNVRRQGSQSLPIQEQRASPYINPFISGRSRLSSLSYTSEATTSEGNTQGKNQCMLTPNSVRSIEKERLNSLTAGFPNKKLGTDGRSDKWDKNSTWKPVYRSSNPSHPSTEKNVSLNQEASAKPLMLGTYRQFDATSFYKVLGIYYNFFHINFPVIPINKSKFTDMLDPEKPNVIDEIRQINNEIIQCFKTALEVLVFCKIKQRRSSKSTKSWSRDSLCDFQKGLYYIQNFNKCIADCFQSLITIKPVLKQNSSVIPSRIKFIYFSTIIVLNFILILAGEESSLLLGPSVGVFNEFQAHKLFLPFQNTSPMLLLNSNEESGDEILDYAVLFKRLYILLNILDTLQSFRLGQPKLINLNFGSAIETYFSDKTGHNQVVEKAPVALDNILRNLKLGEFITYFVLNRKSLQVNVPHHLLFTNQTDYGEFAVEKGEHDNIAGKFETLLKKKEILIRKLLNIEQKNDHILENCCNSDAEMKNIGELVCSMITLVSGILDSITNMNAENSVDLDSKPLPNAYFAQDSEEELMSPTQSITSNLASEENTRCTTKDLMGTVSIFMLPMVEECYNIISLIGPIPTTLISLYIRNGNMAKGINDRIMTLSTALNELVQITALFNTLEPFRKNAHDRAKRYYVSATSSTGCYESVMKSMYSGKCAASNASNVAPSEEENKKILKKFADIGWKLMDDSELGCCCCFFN
# Experiment: PBM E-score (8-mer binding enrichment) (E-score (-0.5 to 0.5)); higher = stronger / more preferred TF binding; most listed sequences are background and not binding sites
# Settings: protein concentration: 200 nM; construct: GST-full length
# In short: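 Detection of bound protein used fluorescent anti-GST, with scans normalised by masliner. The proteins were GST-tagged yeast transcription factors applied at about 100-200 nM to universal all-10-mer Agilent arrays made double-stranded by primer extension. Each ungapped eight-base word, pooled with its reverse complement, was scored with an E-score from the Universal PBM Analysis Suite.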
row,Sequence,PBM E-score
1,AATCCGAC,0.132
2,GGTACCTA,-0.142
3,CGATTAGA,0.0655
4,GTGGTGGA,-0.116
5,CCCACAGA,-0.179
6,CGGATAGA,0.179
7,ATCAGATA,-0.00105
8,AACCTCGT,-0.0231
9,ATCTTAGG,-0.155
10,AGACTAGG,-0.216
11,AGGAAGAA,0.36
12,AGCTTTAC,-0.0505
13,CGTTGACA,-0.275
14,ACGGGGAC,-0.275
15,GAAAGAAC,0.0327
16,CAGAGACG,-0.0472
17,AGTGAGAG,-0.013
18,GCCCAGCA,-0.19
19,ACCGCGGA,0.0249
20,ACTACCAA,0.132
21,AGATAACC,-0.0969
22,GCCTGTAA,-0.0608
23,ATATCTAC,0.173
24,GCGACTAA,0.184
25,CGGTTGTC,0.0426

row,Sequence,PBM E-score
1,ATCTTCCA,0.249
2,AGTTATAG,0.0382
3,ATTACCTA,0.227
4,AGCTCGAC,0.0972
5,CCCAGGCC,-0.324
6,ATATAGCC,0.178
7,CGGGTAGC,-0.00686
8,GCCAGAAC,-0.0693
9,CTTGGCAC,0.116
10,ACGTTTGA,0.0911
11,CTTGGCCA,-0.0338
12,TATAGCGA,-0.114
13,GGGCCATA,0.044
14,CTTCGCAA,-0.0153
15,CACCAGCC,-0.00306
16,CTTTGACA,0.106
17,ACGGATAC,0.154
18,ACCGGTAG,-0.189
19,TCTCTTAA,0.0438
20,AAACATGA,0.176
21,AAAGTGGC,-0.0285
22,GATGGGTA,0.0515
23,AGTGTCCC,-0.178
24,AATAATCG,0.13
25,ATCAGGTC,-0.0388

row,Sequence,PBM E-score
1,GCTCATAA,-0.0365
2,CCGTCCCA,-0.0863
3,ATGCTCGA,0.0442
4,ATGATAAT,0.264
5,GGCCTGGA,-0.302
6,CACAAGTC,-0.11
7,GCCTTTAA,-0.00642
8,AATTCGGC,-0.0451
9,CGTCATAC,0.202
10,GAGAGAGA,-0.0363
11,GCTTCGAA,0.0658
12,AGACAACT,0.123
13,CTGCGCGA,-0.00207
14,ATATGTGG,0.173
15,ATCATTCA,0.144
16,CGATTAGC,-0.0421
17,AACGGATC,0.174
18,CGCTAGAG,-0.115
19,CTTCAGGC,-0.133
20,CTACCGTC,-0.045
21,CTAGAGAG,0.0339
22,GTGTAAGA,0.124
23,GGAACGAA,0.104
24,ACCCCTTA,-0.138
25,CAAGGGTG,-0.113

row,Sequence,PBM E-score
1,GAGGTGTA,-0.141
2,CGGGTTAC,-0.256
3,ACTTTGCT,0.00161
4,GCGGATTA,0.285
5,TAAGGTAA,0.0298
6,GCTGCAGC,-0.127
7,CCGCGAGC,-0.194
8,GCGTTACC,-0.142
9,AATGTGCC,-0.0476
10,GGGAGACA,-0.151
11,GTGTCGCA,-0.165
12,TCCTTTAA,0.132
13,GAGTAGCC,-0.119
14,CCCGCGTC,0.021
15,CGAGTGAC,-0.0696
16,ACTGTGGG,-0.085
17,ATATAATG,0.0733
18,CCGGGCAA,-0.164
19,CGTAGATA,0.0341
20,AGATTGCA,0.0779
21,GCGACACA,-0.213
22,ATCGTAGG,0.0186
23,CACCAGTC,-0.196
24,TACTCGAA,0.0219
25,AAAGCATC,0.0259

row,Sequence,PBM E-score
1,AAGTAAGG,0.129
2,AGTTCCCC,-0.193
3,AATCGACC,0.0467
4,ATGGGGAA,0.0504
5,GTGATCAC,-0.181
6,AGTGAAGC,-0.0225
7,AAGGGGGC,-0.386
8,AAATCTGG,0.219
9,AGCTGAAC,-0.327
10,GGTAAACA,0.216
11,AACGGTAT,-0.116
12,CGCACAGC,-0.121
13,CGCGGATC,-0.163
14,AATGGGTA,0.218
15,GCCCCTCC,-0.264
16,AGGACTTA,-0.174
17,CCCAGTAC,-0.0948
18,CCTGCATA,-0.141
19,CGTTAAAA,-0.0301
20,CGGGTAAG,-0.127
21,ACTATCCC,-0.24
22,GGAACACA,0.149
23,ACCCCCGG,-0.222
24,AAGAGCGC,0.0652
25,CACTGCCC,-0.169

row,Sequence,PBM E-score
1,AGGCGGCG,-0.224
2,CGGCCGTC,-0.245
3,CATCCGAA,0.127
4,AAAGCGGA,-0.142
5,GCCGTATA,0.0638
6,CATGGAGC,-0.121
7,GCACCTCC,-0.186
8,CTTGGAGC,-0.0473
9,ATTGTCAC,0.0585
10,GCCCAATA,-0.13
11,AGAGACCG,-0.246
12,CCTAACCA,0.0244
13,TCACCAGA,-0.204
14,GGGTAGCA,-0.0817
15,GGTCGTTA,0.024
16,CCCCGCTA,0.0134
17,ATGTTGCA,0.101
18,AAAGGTCA,-0.0607
19,GTGCCACA,-0.302
20,AGCGACGA,-0.0902
21,TACCATAA,0.209
22,GGGACGAC,-0.088
23,TACAATAA,0.191
24,GGCGCACA,-0.138
25,GACGAGAA,0.0391

row,Sequence,PBM E-score
1,AGAAAAGC,0.108
2,TAATATCA,0.319
3,CGTAAAGC,-0.132
4,ATCTTACA,0.0443
5,CTCATCCA,-0.0476
6,TTGGGAAA,0.294
7,CCCGGTAG,-0.137
8,ACCGAGCC,-0.0337
9,CCAATCGG,-0.0308
10,TACTAGGA,0.114
11,AGGACACT,-0.245
12,CCAAGAAG,-0.00972
13,CCGCATAA,0.273
14,CTTTCGTC,-0.0306
15,AAATCTTA,0.133
16,ACTATTCG,0.177
17,CTGACATA,-0.0988
18,CGGCACTA,-0.103
19,AGATGCGC,-0.0924
20,GATTGCAA,0.171
21,ACAGTAGC,-0.0291
22,AGAGGTCC,-0.0215
